Variants at the floor of the assay are shown more often than the library holds them.
B1: tRNA (parent)
chain: CUCUCGGUAGCCAAGUUGGUUUAAGGCGCAAGACUUUAAUUUAUCACUACGAAAUCUUGAGAUCGGGCGUUCGACUCGCCCCCGGGAGAUUUUUUCCUCGAGCAA

Variants of: B1
Assay: nonsense suppression (GFP-seq) (ratio to wild type); higher = more function; SUP4oc tRNA, yeast GFP reporter sort-seq
Summary of the method: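 Raffinose/galactose medium with 80 mg/L adenine was used to grow yeast carrying genome-integrated tRNA variants (~3% random-mutation library), RFP, and a galactose-driven GFP ochre reporter. Cells went into GFP/RFP bins, which were Illumina-sequenced, and variants with ≥100 reads and ≥30 cells were scored. Nonsense suppression (GFPSEQ) is the per-bin median GFP/RFP weighted by estimated cell share and expressed relative to the unmutated parent tRNA.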

| Variant | nonsense suppression |
| --- | --- |
| A30U U55C A87C A89U | 0.0456 |
| A31C A54G U63G | ≤ 0.026 |
| A31G G61U A62U | ≤ 0.026 |
| A31G C80A | ≤ 0.026 |
| A31G C80G | ≤ 0.026 |
| G32A C80G A89C | ≤ 0.026 |
| A31G G67C C72U | ≤ 0.026 |
| A30U G78U | ≤ 0.026 |
| A31G C68U G78C G85C | ≤ 0.026 |
| G32A C34G | ≤ 0.026 |
| G32A C83A A87C | ≤ 0.026 |
| G32A U35A G61C G78C | ≤ 0.026 |
| G32A A62G U71G G78A G85A | ≤ 0.026 |
| A31G C75A A89G | ≤ 0.026 |
| A31G G73C | ≤ 0.026 |
| G32A A89G | ≤ 0.026 |
| A31U G69U | ≤ 0.026 |
| A31G U63C | 0.333 |
| A31G U63A | 0.684 |
| G32A C34G U35G U58A | ≤ 0.026 |
| A30U U35G C79G G86U | ≤ 0.026 |
| A31U G67A C77U | ≤ 0.026 |
| G32A C56G | ≤ 0.026 |
| A30U C81G | ≤ 0.026 |

| Variant | nonsense suppression |
| --- | --- |
| A31G G61A | 0.8 |
| A31G G61C | 0.275 |
| A31U C34U | ≤ 0.026 |
| A31C U70A C72G | ≤ 0.026 |
| A31G G66U | ≤ 0.026 |
| A31C U76G C82A | ≤ 0.026 |
| A31C A54U U57C U71A | ≤ 0.026 |
| A31G A33G C56A G65U | ≤ 0.026 |
| A31C G66C | ≤ 0.026 |
| A31C C80G | ≤ 0.026 |
| A31U G73U | ≤ 0.026 |
| A30U U58G C79A | ≤ 0.026 |
| A31C G65A C68G | ≤ 0.026 |
| A31C G65A C83A | ≤ 0.026 |
| A31C A62G C82U | ≤ 0.026 |
| A31G A54C G84U | ≤ 0.026 |
| A31U U55G A74G | ≤ 0.026 |
| A31G C72U | ≤ 0.026 |
| A31G C72A | ≤ 0.026 |
| A31U U55A | ≤ 0.026 |
| A30U U76G | 0.0538 |
| A31U G32U | ≤ 0.026 |
| A31G A74U | 0.029 |
| A31C U63A U70C | ≤ 0.026 |

| Variant | nonsense suppression |
| --- | --- |
| A31G C81G | ≤ 0.026 |
| A31U G84U | ≤ 0.026 |
| A30U G85U | 0.0315 |
| G32A G61C U70C | ≤ 0.026 |
| A31C C77A G88A | ≤ 0.026 |
| G32A G66U C83A | ≤ 0.026 |
| A31G U35G | ≤ 0.026 |
| A31G U35C | 0.0321 |
| A31U C81A C82G | ≤ 0.026 |
| A31C U35G G85A | ≤ 0.026 |
| A31C C34U G61C | ≤ 0.026 |
| A31U C56U | ≤ 0.026 |
| A31C A74C | ≤ 0.026 |
| A31C C72A G88C | ≤ 0.026 |
| A30U U63A G84U | ≤ 0.026 |
| G32A U55A C75A | ≤ 0.026 |
| A31U A60G | ≤ 0.026 |
| A31G G65A | ≤ 0.026 |
| G32A G66A | ≤ 0.026 |
| A31U U58A | ≤ 0.026 |
| G32A C68U | ≤ 0.026 |
| G32A A74G | ≤ 0.026 |
| A31U G66C | ≤ 0.026 |
| G32A A60C G86A | ≤ 0.026 |

| Variant | nonsense suppression |
| --- | --- |
| A31G C34A U76A C83A G85A | ≤ 0.026 |
| A30U G67A G73U C81A | ≤ 0.026 |
| A31U A74U | ≤ 0.026 |
| A31G | 1.08 |
| A31C | ≤ 0.026 |
| A31U | 0.177 |
| G32A C80U | ≤ 0.026 |
| A30U G66A | ≤ 0.026 |
| A31U G67U G88U | ≤ 0.026 |
| A30U G61A | 0.0365 |
| A31U C83A | ≤ 0.026 |
| A31G C56U | ≤ 0.026 |
| A31C C82G | ≤ 0.026 |
| A31U G65C | ≤ 0.026 |
| A31U C64A G66U G67C C79A | ≤ 0.026 |
| G32A G61C G67U C72U | ≤ 0.026 |
| G32A U57A | ≤ 0.026 |
| A31C G59A G88U | ≤ 0.026 |
| A31G C81U G84C | ≤ 0.026 |
| A30U C82U A87G | ≤ 0.026 |
| A31C C68G G88A | ≤ 0.026 |
| A31C U35G U76G A87G | ≤ 0.026 |
| A31C A89U | ≤ 0.026 |
| A31U G32A A60C C80G | ≤ 0.026 |

| Variant | nonsense suppression |
| --- | --- |
| A31G A62U | ≤ 0.026 |
| G32A G67U G69A | ≤ 0.026 |
| A31C C79U | ≤ 0.026 |
| A31G G67U G69U | ≤ 0.026 |
| A31U C80G G84A | ≤ 0.026 |
| A31U A62U | 0.0539 |
| A31U A62C | ≤ 0.026 |
| A31G C56A G88A | ≤ 0.026 |
| A31G G61U G69A | ≤ 0.026 |
| A31U U55G A62G G85U | ≤ 0.026 |
| A31G A74U U76A | ≤ 0.026 |
| A31U C68U G69C | ≤ 0.026 |
| A31G U35G C77G | ≤ 0.026 |
| A31C U35G G73A | ≤ 0.026 |
| A30U G69C C72U | ≤ 0.026 |
| A31G G61A G69U | ≤ 0.026 |
| A31G U70C C81G | ≤ 0.026 |
| G32A U35G | ≤ 0.026 |
| A30U G65A A89G | ≤ 0.026 |
| G32A G59A | ≤ 0.026 |
| A30U G88C | ≤ 0.026 |
| A31U U76C | ≤ 0.026 |
| A31U U76G | ≤ 0.026 |
| A31U A89C | ≤ 0.026 |

| Variant | nonsense suppression |
| --- | --- |
| A31C A33G C80U | ≤ 0.026 |
| A31U G78U G88U | ≤ 0.026 |
| G32A | ≤ 0.026 |
| A31G C79A | ≤ 0.026 |
| A31C G69U | ≤ 0.026 |
| A31C C34U G59A | ≤ 0.026 |
| A30U U70G A74U | ≤ 0.026 |
| A31C G65U | ≤ 0.026 |
| A30U U58A C64A | ≤ 0.026 |
| G32A G61C A89G | ≤ 0.026 |
| G32A G86C | ≤ 0.026 |
| A31G C56U U70G G85A G86A | ≤ 0.026 |
| A31U G59C | ≤ 0.026 |
| A30U U55G A62U | ≤ 0.026 |
| A31G U58C G61U A62C G84C | ≤ 0.026 |
| G32A G69A | ≤ 0.026 |
| A31G C77A | ≤ 0.026 |
| G32A A33U U63A G67C | ≤ 0.026 |
| A30U G59A G65A G84C | ≤ 0.026 |
| A31U C34U U55C | ≤ 0.026 |
| A31U G61C | ≤ 0.026 |
| G32A C81G | ≤ 0.026 |
| A31U C56A U70C | ≤ 0.026 |
| A31G C83G | ≤ 0.026 |

| Variant | nonsense suppression |
| --- | --- |
| A31U A62U G65C C82A | ≤ 0.026 |
| A31G A62G G67C G73C G88C | ≤ 0.026 |
| A31G G61C G84C G86U | ≤ 0.026 |
| A30U U35G G65U | ≤ 0.026 |
| A31G U58A U63C | ≤ 0.026 |
| A31U G66A U76C | ≤ 0.026 |
| A30U U35G C80A | ≤ 0.026 |
| A31U U55G C77U | ≤ 0.026 |
| A31U C82G | ≤ 0.026 |
| A31C C64G | ≤ 0.026 |
| A31G G59U G66U G69A C80G | ≤ 0.026 |
| A31C C75G | ≤ 0.026 |
| A31C C56U G61U C80G | ≤ 0.026 |
| A30U U55C | ≤ 0.026 |
| A31G A87G A89C | ≤ 0.026 |
| A31U C34U C80G G85C | ≤ 0.026 |
| A31C G84C | ≤ 0.026 |
| A31U G88U | ≤ 0.026 |
| A31U G88A | ≤ 0.026 |
| A31C U55A U58G C64U A74C | ≤ 0.026 |
| G32A U55C | ≤ 0.026 |
| A31U U55C A74G G78A G86C | ≤ 0.026 |
| A31G G66C C77G | ≤ 0.026 |

From the RNAGym collection of RNA variant scans (doi:10.1101/gad.245936.114)
